From the BET-seq Pho4 binding data (Le et al. 2018)
This is one part of the list. Values were computed here from the reads of four pooled replicates and scatter widely.

molecular target: T1, Pho4 (S. cerevisiae) (UniProt P07270); experiment: relative binding free energy (BET-seq); higher = weaker binding; conditions: reference: library average
T1 sequence: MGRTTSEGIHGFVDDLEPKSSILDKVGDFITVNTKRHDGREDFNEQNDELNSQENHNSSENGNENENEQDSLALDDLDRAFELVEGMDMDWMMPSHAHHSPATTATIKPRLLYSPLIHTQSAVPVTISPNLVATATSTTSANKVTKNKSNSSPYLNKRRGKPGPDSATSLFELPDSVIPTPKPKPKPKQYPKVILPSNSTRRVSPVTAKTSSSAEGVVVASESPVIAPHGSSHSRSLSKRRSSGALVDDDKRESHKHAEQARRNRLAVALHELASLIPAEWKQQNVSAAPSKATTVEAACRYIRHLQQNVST

Sequence	relative binding free energy [kcal/mol]
GGGCGCACGTGTGTGT	-0.13
AATATCACGTGTAGGG	0.11
GGATACACGTGATTGG	0.23
TGGTCCACGTGGGTCT	-0.1
GGTACCACGTGGTGGT	-0.18
TTGAACACGTGTGGGA	0.22
ATTGGCACGTGATCTG	0.01
CGTATCACGTGTGTCT	0.12
TGAGACACGTGGCGGG	-0.06
TTTTCCACGTGGTGAG	0.08
TCATGCACGTGAGTGT	0.16
TGGTGCACGTGGGTCG	-0.14
GGGGGCACGTGGGTTG	-0.24
GAGTTCACGTGTTGTA	0.33
CGTGTCACGTGGTTAC	0.02
TAAGTCACGTGTCATG	0
TATGGCACGTGGTGAC	-0.08
GGCGTCACGTGAGAGG	0.27
AAGAGCACGTGAGGTG	0.09
TGTTACACGTGAAACG	0.41
AGTTTCACGTGCTTTT	0.13
CAGGTCACGTGGTGAA	0.16
ATGTACACGTGAGTAG	0.29
GGGGGCACGTGTATGT	-0.05
TTTCTCACGTGGCTGG	0.11
TTGTCCACGTGGGGAA	-0.03

Sequence	relative binding free energy [kcal/mol]
AGTTGCACGTGATTTC	0.07
TGTAGCACGTGGATTA	-0.07
TATTTCACGTGACGCG	0.38
TGAGACACGTGTAGGG	0.07
GTCAACACGTGGTTGG	-0.01
TTATTCACGTGTAGCA	0.2
TTTAACACGTGATCAG	0.22
GTTCACACGTGCGTTG	0.06
GAGGTCACGTGAGTTA	0.3
GCTGACACGTGAGTTG	0.42
TTGTTCACGTGCTGCA	0.28
ATATTCACGTGTTAGG	0.16
TAGGTCACGTGGTAAT	0.14
TAAGGCACGTGTATGT	-0.01
TAATACACGTGGTGCG	-0.03
GGTATCACGTGCAATG	0.23
TGTGCCACGTGATTGG	0.12
CAAGGCACGTGCGGTG	-0.12
AGTTTCACGTGAATAA	0.36
TGTTACACGTGAGGAG	0.45
ATGGTCACGTGGTCTG	0.09
GTAGGCACGTGGAAAG	0.08
AGGTTCACGTGAGCTT	0.31
AGGGTCACGTGATGTC	0.14
TTCAGCACGTGCAGGG	-0.07
GATGTCACGTGAAGCG	0.51

Sequence	relative binding free energy [kcal/mol]
ATTGACACGTGGTTTC	0.08
ATTGTCACGTGCGTCG	-0.12
AAGTTCACGTGGAAGA	0.27
AGTAGCACGTGTAGTA	-0.19
GTGAACACGTGATGAG	0.22
TTGTCCACGTGAGCGG	0.19
TGCAGCACGTGGAGAG	0.01
GCGTGCACGTGGAATG	0.02
GTGAGCACGTGTTAAG	0.14
AGAGTCACGTGGCGAG	0.24
TGTGTCACGTGGTTGT	0.07
GAGGGCACGTGTTACG	-0.06
GTAGTCACGTGAGGGA	0.31
TCGTGCACGTGGAATT	0.12
GGTTGCACGTGCCTGT	-0.09
AAGTTCACGTGAAGTA	0.41
GGTTGCACGTGAGACG	0.12
TTAGCCACGTGGGTGC	-0.27
AGCAGCACGTGTTGGG	0
GTGGGCACGTGTGTGG	0.01
AATTTCACGTGGCATT	0.14
ATGTACACGTGACTGG	0.02
TTTGGCACGTGGGAAG	-0.14
GGTGCCACGTGTACGT	-0.02
ATATACACGTGGTAGG	-0.07
GGGGGCACGTGGTCTA	-0.19

Sequence	relative binding free energy [kcal/mol]
TGGTACACGTGGCATA	-0.13
TGCAGCACGTGGGTCT	-0.16
GAGGGCACGTGATGCT	-0.09
AGTGACACGTGTGAAT	0.17
ACTAGCACGTGGCGTG	-0.13
CGGGGCACGTGTCATT	0.06
GAGAGCACGTGTTTTA	-0.04
CTGTGCACGTGGAGAT	0.05
GTGGGCACGTGGTATC	-0.08
GCAGGCACGTGTTATT	0.12
GAATTCACGTGGTTGA	0.15
ATCGGCACGTGGGAAT	-0.12
GAGGGCACGTGGGGAT	-0.08
GGAGACACGTGGGCTA	-0.01
AGGGTCACGTGGCCGG	-0.01
TGGTACACGTGTCGTT	0
TCGGGCACGTGGCGCT	-0.13
GTTGGCACGTGTATTC	0.02
AGAGTCACGTGAGGTA	0.16
CGTCGCACGTGTATGT	-0.05
TTGTTCACGTGGCATT	0.15
GAATTCACGTGGAGTG	0.29
TAGGGCACGTGAAAGG	0.17
GATGACACGTGGGTAA	-0.14
TATGGCACGTGGAATG	0.07
ATGGTCACGTGACGAT	0.18

Sequence	relative binding free energy [kcal/mol]
CGGGCCACGTGGGTGG	-0.2
CGTGTCACGTGGGGTG	-0.07
TTGAACACGTGTTAAT	0.02
AGGATCACGTGATTGG	0.32
GGTTTCACGTGGAGGT	0.35
GTGTTCACGTGCTTTA	0.23
GTTGTCACGTGCGGGT	0.05
AGGATCACGTGTGATT	0.33
CGAGGCACGTGTTCGG	-0.18
TGCTACACGTGTAGTT	0.07
ATTAACACGTGGGGGC	-0.27
AGTTGCACGTGGACAT	0.04
CTTAGCACGTGTTGCT	-0.02
TTGAGCACGTGATATG	0.12
TCGAGCACGTGAGTTA	0.18
AACTGCACGTGTTGGG	0.03
TTATTCACGTGAACGT	0.28
AAAGTCACGTGTTAGT	0.08
GTTTTCACGTGCATGG	0.28
AGTGGCACGTGCTGAT	-0.18
GTTAGCACGTGGGTGC	-0.06
TTATGCACGTGGGTAA	-0.04
TATGTCACGTGTGGTA	0.15
GGAGCCACGTGGTGCG	-0.06
GCGAGCACGTGAGGTG	0.08
CGATTCACGTGGGGGG	0.09

Sequence	relative binding free energy [kcal/mol]
TATGGCACGTGTTACT	-0.09
CGGCACACGTGGTGGT	-0.11
TGCGTCACGTGTTGCA	0.14
GGCGTCACGTGCGGGT	0
AGTAACACGTGGAAGT	0.11
AGGTTCACGTGTAGAA	0.29
AGGCTCACGTGTAGTA	0.2
TGTTTCACGTGTAAAT	0.35
CAAGTCACGTGGTATG	0.12
CGAGTCACGTGTGGAA	0.29
AGGGACACGTGGATTA	0.08
AGTTACACGTGTTTCT	0.17
TTGGTCACGTGAGTGA	0.23
CAGAGCACGTGTGGGA	-0.08
GGACACACGTGCGTGT	0.08
ATAGACACGTGTTTAG	-0.05
TGTTGCACGTGATGTG	0.09
GGCATCACGTGGTCTT	0.15
TTGTTCACGTGTTCCA	0.24
TCGTCCACGTGTAGGG	0.11
GCAGGCACGTGCGTGT	-0.18
GTGTGCACGTGTAAAT	0.09
TTCGACACGTGTTGGT	0.04
AAGTTCACGTGGCGGG	0.2
TTTGCCACGTGTAGGT	-0.05
ATTTACACGTGTATTA	-0.08

Sequence	relative binding free energy [kcal/mol]
TTTACCACGTGTAGTT	0.19
CGTGGCACGTGATGCT	-0.04
TTATGCACGTGGCAAT	-0.17
GTTTTCACGTGTCTAA	0.29
GGGTGCACGTGGGAAT	-0.07
TATTTCACGTGTGATA	0.39
TTGTGCACGTGCTAGT	-0.09
TTGCTCACGTGCGTGT	0.11
TGTGTCACGTGAATGG	0.27
CTTGGCACGTGGCTTT	-0.25
TTTTACACGTGGTTAC	0.06
CGGGTCACGTGTTGCA	0.09
GTTTGCACGTGAAAAT	0.32
GTTCGCACGTGAAGTA	0.34
ATAGTCACGTGTATTA	0.08
CTATTCACGTGTGGGT	0.3
GTAAGCACGTGGTCGT	-0.15
GCCTTCACGTGTTTGG	0.38
TGTCACACGTGACGGG	0.16
TGGATCACGTGTGCAG	-0.01
AGGGTCACGTGGACTT	0.14
AGGTCCACGTGCATGT	0.1
GTGTTCACGTGTGTGT	0.26
ATATTCACGTGTCTTT	0.12
GGTGTCACGTGGAATG	0.22
TTTGACACGTGTCGTT	0.09

Sequence	relative binding free energy [kcal/mol]
TTTTGCACGTGTGGTC	0.17
ATGGCCACGTGACGTT	0.14
AGCTGCACGTGTTGGT	0
CGTGCCACGTGGAAGG	-0.06
GAGGTCACGTGGCGTG	0
TATTCCACGTGTTTGG	-0.04
AGATGCACGTGTCGTT	-0.04
TGGGTCACGTGGGTGT	0.05
TGTGGCACGTGAAAGC	0.13
ATTTTCACGTGAAAGT	0.4
TGAAGCACGTGAGCTG	0.18
GTTCGCACGTGGTGGC	-0.1
ATTAGCACGTGTGCGT	-0.06
AGTGACACGTGGATTA	-0.09
GGGTACACGTGGTACG	-0.04
TGTACCACGTGTGTTA	-0.18
GTTTACACGTGAAGTA	0.17
TTCATCACGTGTTGGT	0.1
TTTGTCACGTGTGGGT	0.21
CGGGGCACGTGATAGT	0.08
TTTTGCACGTGTCTTG	0
TCGTGCACGTGGCATG	-0.08
CGGTACACGTGGTGTG	0
TGCAGCACGTGGTGAT	-0.1
AGAGGCACGTGCAAGT	-0.13
CATGACACGTGAGTTG	0.31

Sequence	relative binding free energy [kcal/mol]
ATTTGCACGTGTGAAA	0.11
ATAGGCACGTGATTGC	-0.11
AGGGCCACGTGTGAAG	0.1
ATACTCACGTGGGGGG	-0.04
GGACGCACGTGTGTGG	0.03
CGGTACACGTGTGTGC	0.04
GGTAACACGTGGTTGA	0.1
ACTTTCACGTGAGGTC	0.42
TGAGTCACGTGAAGAG	0.3
TTTAACACGTGACAGG	0.13
TGTAACACGTGGGACT	-0.11
GCTGACACGTGGGGTG	-0.12
AGCATCACGTGTTGGT	0.25
TTTCTCACGTGTGTGG	0.34
GGGCTCACGTGGGGCA	0.08
ACTGTCACGTGTATGG	0.09
TAGGTCACGTGTGCAA	0.17
AGTCACACGTGTGTAG	0.05
CGGGACACGTGACGGG	0.08
TACGTCACGTGTGGGT	0.2
AAGGCCACGTGGGATG	-0.15
GTTAGCACGTGGCTGC	0.01
